Laboratory results as given in PMC9911399, “Two distinct binding modes provide the RNA-binding protein RbFox with extraordinary sequence specificity”.
Changes are numbered by the printed parent chain; changes in the protein carry UniProt numbers. The list shows a part of the results.

T1: RBFOX1 RRM RbFoxmut (Fox-RRM*) (Homo sapiens, UniProt Q9NWB1 109-208, R118D;E147R;N151S;E152T)
T1 sequence: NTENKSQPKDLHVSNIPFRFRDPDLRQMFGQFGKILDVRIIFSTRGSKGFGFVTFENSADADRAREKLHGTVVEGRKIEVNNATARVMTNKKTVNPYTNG

B1: AACAAAA (DNA:RNA)
RNA: GGGAGACCGGAAUUCAGAUUGUCCAACAAAAUUAAAUCCCGUCGUAGCCACCA
DNA 1: CAATCTGAATTCCGGTCTCCC
DNA 2: TGGTGGCTACGACGGGATT
B2: GAUUCCG (DNA:RNA)
RNA: B1 RNA with A25G, C27U, A28U, A29C, A30C, A31G
DNA 1: CAATCTGAATTCCGGTCTCCC
DNA 2: TGGTGGCTACGACGGGATT
B3: CCCCGUU (DNA:RNA)
RNA: B1 RNA with A25C, A26C, A28C, A29G, A30U, A31U
DNA 1: CAATCTGAATTCCGGTCTCCC
DNA 2: TGGTGGCTACGACGGGATT
B4: CCACGUU (DNA:RNA)
RNA: GGGAGACCGGAAUUCAGAUUGUCCCCACGUUUUAAAUCCCGUCGUAGCCACCA
DNA 1: CAATCTGAATTCCGGTCTCCC
DNA 2: TGGTGGCTACGACGGGATT
B5: GAGCUUU (DNA:RNA)
RNA: B4 RNA with C25G, C26A, A27G, G29U
DNA 1: CAATCTGAATTCCGGTCTCCC
DNA 2: TGGTGGCTACGACGGGATT
B6: CUGGCUA (DNA:RNA)
RNA: B4 RNA with C26U, A27G, C28G, G29C, U31A
DNA 1: CAATCTGAATTCCGGTCTCCC
DNA 2: TGGTGGCTACGACGGGATT
B7: AGAACUC (DNA:RNA)
RNA: B1 RNA with A26G, C27A, A29C, A30U, A31C
DNA 1: CAATCTGAATTCCGGTCTCCC
DNA 2: TGGTGGCTACGACGGGATT
B8: AGUUUAG (DNA:RNA)
RNA: B1 RNA with A26G, C27U, A28U, A29U, A31G
DNA 1: CAATCTGAATTCCGGTCTCCC
DNA 2: TGGTGGCTACGACGGGATT
B9: AUAAGCA (DNA:RNA)
RNA: B1 RNA with A26U, C27A, A29G, A30C
DNA 1: CAATCTGAATTCCGGTCTCCC
DNA 2: TGGTGGCTACGACGGGATT
B10: CAAUAUG (DNA:RNA)
RNA: B4 RNA with C26A, C28U, G29A, U31G
DNA 1: CAATCTGAATTCCGGTCTCCC
DNA 2: TGGTGGCTACGACGGGATT
B11: UUCCUAU (DNA:RNA)
RNA: B1 RNA with A25U, A26U, A28C, A29U, A31U
DNA 1: CAATCTGAATTCCGGTCTCCC
DNA 2: TGGTGGCTACGACGGGATT
B12: GAAAGAU (DNA:RNA)
RNA: B1 RNA with A25G, C27A, A29G, A31U
DNA 1: CAATCTGAATTCCGGTCTCCC
DNA 2: TGGTGGCTACGACGGGATT
B13: AAAGUUG (DNA:RNA)
RNA: B1 RNA with C27A, A28G, A29U, A30U, A31G
DNA 1: CAATCTGAATTCCGGTCTCCC
DNA 2: TGGTGGCTACGACGGGATT
B14: CAGGGCC (DNA:RNA)
RNA: B4 RNA with C26A, A27G, C28G, U30C, U31C
DNA 1: CAATCTGAATTCCGGTCTCCC
DNA 2: TGGTGGCTACGACGGGATT
B15: AAUCCUA (DNA:RNA)
RNA: B1 RNA with C27U, A28C, A29C, A30U
DNA 1: CAATCTGAATTCCGGTCTCCC
DNA 2: TGGTGGCTACGACGGGATT
B16: CGACUCA (DNA:RNA)
RNA: B4 RNA with C26G, G29U, U30C, U31A
DNA 1: CAATCTGAATTCCGGTCTCCC
DNA 2: TGGTGGCTACGACGGGATT
B17: GGAUAAG (DNA:RNA)
RNA: B1 RNA with A25G, A26G, C27A, A28U, A31G
DNA 1: CAATCTGAATTCCGGTCTCCC
DNA 2: TGGTGGCTACGACGGGATT
B18: UCGUGAU (DNA:RNA)
RNA: B4 RNA with C25U, A27G, C28U, U30A
DNA 1: CAATCTGAATTCCGGTCTCCC
DNA 2: TGGTGGCTACGACGGGATT
B19: AAGGGGC (DNA:RNA)
RNA: B1 RNA with C27G, A28G, A29G, A30G, A31C
DNA 1: CAATCTGAATTCCGGTCTCCC
DNA 2: TGGTGGCTACGACGGGATT
B20: UUGACGC (DNA:RNA)
RNA: B1 RNA with A25U, A26U, C27G, A29C, A30G, A31C
DNA 1: CAATCTGAATTCCGGTCTCCC
DNA 2: TGGTGGCTACGACGGGATT

Each binder was assayed against T1, RBFOX1 RRM RbFoxmut (Fox-RRM*) (assay: EMSA; HiTS-Eq, 1 nM pool, 10 min; buffer printed only for the single-RNA assays: 10 mM Tris pH 7.5, 150 mM NaCl, 3.4 mM EDTA, 0.001% NP-40, 30 C). Settings: tags: His6 N-terminal (pET28a); label: 5' 32P.
How it was run: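 Purified RbFox RRM (wild type or mutant) was equilibrated for 10 min in 50 µL with 1 nM of a 5′-radiolabelled pool of RNA with 7 randomized nucleotides, its flanks annealed to DNA oligonucleotides, across increasing protein concentrations. Free RNA was separated by 8% native PAGE, excised, reverse-transcribed, PCR-barcoded and sequenced on an Illumina HiSeq 2500. Relative association constants came from read-count changes of each variant against the control reaction, normalised to the cognate motif.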

| Binder | binding signal |
| --- | --- |
| B1 | 0.0739 KA relative to UGCAUGU |
| B2 | 0.0895 KA relative to UGCAUGU |
| B3 | 0.0828 KA relative to UGCAUGU |
| B4 | 0.0948 KA relative to UGCAUGU |
| B5 | 0.0736 KA relative to UGCAUGU |
| B6 | 0.0967 KA relative to UGCAUGU |
| B7 | 0.0766 KA relative to UGCAUGU |
| B8 | 0.119 KA relative to UGCAUGU |
| B9 | 0.139 KA relative to UGCAUGU |
| B10 | 0.1 KA relative to UGCAUGU |
| B11 | 0.0853 KA relative to UGCAUGU |
| B12 | 0.0931 KA relative to UGCAUGU |
| B13 | 0.113 KA relative to UGCAUGU |
| B14 | 0.177 KA relative to UGCAUGU |
| B15 | 0.0671 KA relative to UGCAUGU |
| B16 | 0.0921 KA relative to UGCAUGU |
| B17 | 0.0989 KA relative to UGCAUGU |
| B18 | 0.086 KA relative to UGCAUGU |
| B19 | 0.094 KA relative to UGCAUGU |
| B20 | 0.0672 KA relative to UGCAUGU |
